Assay results from the supplement of paper PMC3334620.
Whole data set: some 33,000 sequences, median “E-score (-0.5 to 0.5)” near -0.012, cut for the highest 2% near 0.27. The list shows a part of the results.

Target: T1, Vhr1 (UniProt P40522)
T1 sequence: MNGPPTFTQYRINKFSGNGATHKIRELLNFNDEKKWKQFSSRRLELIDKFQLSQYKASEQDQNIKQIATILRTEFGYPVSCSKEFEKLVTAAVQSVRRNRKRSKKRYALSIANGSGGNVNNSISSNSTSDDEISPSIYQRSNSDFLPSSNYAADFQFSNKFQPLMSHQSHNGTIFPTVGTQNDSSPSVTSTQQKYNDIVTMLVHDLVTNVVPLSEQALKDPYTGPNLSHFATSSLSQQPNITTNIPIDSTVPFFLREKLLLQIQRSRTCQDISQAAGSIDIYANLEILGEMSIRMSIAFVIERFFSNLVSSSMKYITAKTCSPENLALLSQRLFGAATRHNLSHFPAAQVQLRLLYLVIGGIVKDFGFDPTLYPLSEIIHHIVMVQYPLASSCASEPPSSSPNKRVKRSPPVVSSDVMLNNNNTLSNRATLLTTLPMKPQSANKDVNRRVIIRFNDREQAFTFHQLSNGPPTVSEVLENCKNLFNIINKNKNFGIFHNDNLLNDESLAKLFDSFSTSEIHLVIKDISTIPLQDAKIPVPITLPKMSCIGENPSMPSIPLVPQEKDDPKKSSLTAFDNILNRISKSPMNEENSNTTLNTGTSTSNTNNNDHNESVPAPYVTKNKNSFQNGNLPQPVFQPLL
Experiment: PBM E-score (8-mer binding enrichment) (E-score (-0.5 to 0.5)); higher = stronger / more preferred TF binding; most listed sequences are background and not binding sites
Conditions: protein concentration: 200 nM; construct: GST-full length
Summary of the method: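 PURExpress in vitro transcription/translation supplied GST-tagged yeast transcription factors, either full-length or DNA-binding domain. Applied at about 100-200 nM to universal all-10-mer Agilent arrays double-stranded by primer extension, the bound protein was detected with fluorescent anti-GST. E-scores, modified Wilcoxon-Mann-Whitney statistics, were given by the Universal PBM Analysis Suite to ungapped eight-base words pooled with their reverse complements after masliner normalisation.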

| Sequence | PBM E-score |
| --- | --- |
| GCTCGCAA | 0.0852 |
| ACTGGGTG | 0.25 |
| ACTCTTTC | -0.172 |
| ATCTAGAA | -0.192 |
| CCTTCTGA | -0.149 |
| ACGCATGG | 0.114 |
| GATATCGC | 0.00024 |
| ACGTACGG | -0.115 |
| GAATAGAA | -0.0552 |
| AGACCGAA | 0.12 |
| CTGCTAAG | -0.346 |
| AAGCCGTA | -0.0567 |
| GTGGGTCA | 0.365 |
| AAGGCAGT | -0.0436 |
| AAGGCATA | -0.129 |
| ACACAACG | 0.165 |
| AACTCGCC | 0.00825 |
| ACTAGACC | 0.0898 |
| ATCGGTGC | 0.0297 |
| AATCATTC | 0.251 |
| ACTTACCG | 0.0832 |
| CACCTGTA | -0.0847 |
| GGAGGCAC | -0.089 |
| ATACAAAG | -0.0042 |
| GCACACGA | 0.0343 |

| Sequence | PBM E-score |
| --- | --- |
| CGAGGGCA | -0.00827 |
| ATCGCTAA | -0.0716 |
| ACACTGGG | -0.0839 |
| ATATCTTA | 0.0729 |
| ACGCCAGG | 0.21 |
| AACTTACT | -0.0933 |
| GGAATGCC | -0.0345 |
| TCATCTCA | 0.201 |
| CCGATGTC | 0.00649 |
| CAGCTAAC | -0.15 |
| CGCTTGTA | -0.0149 |
| ACCTAGGA | 0.0481 |
| GCCGGCAA | -0.216 |
| AAAGGGAG | -0.0894 |
| CTATTGTA | 0.0701 |
| GCCGCTAA | -0.223 |
| AGCTGTAC | 0.016 |
| ATTCATGG | 0.21 |
| ACCTGCAA | -0.106 |
| CAATTCTA | -0.108 |
| CGCCAAGA | -0.0615 |
| ATACATGA | 0.118 |
| CCCATGGA | 0.0783 |
| CATTGAAA | -0.0955 |
| GCACCACA | -0.0353 |

| Sequence | PBM E-score |
| --- | --- |
| TAACGAGA | -0.0121 |
| AGCACCAG | -0.0111 |
| CCGCCTCC | 0.00022 |
| CGACCTTA | -0.116 |
| AAGTTCTA | -0.221 |
| AATAGGTA | -0.0075 |
| AAAACCAT | 0.0569 |
| AGATGTGC | -0.0463 |
| TTATTGAA | -0.115 |
| CGGTGGCA | -0.116 |
| AGGCATAT | -0.0741 |
| ATAGGAAC | -0.151 |
| CCGGCCCG | 0.231 |
| GGTATACA | 0.168 |
| AAACAGAG | 0.0118 |
| ATACCTTG | 0.0232 |
| CAGAGTTA | 0.103 |
| CGACCGTA | -0.0441 |
| ACGATTGA | 0.0265 |
| CCACCCGA | 0.118 |
| GGGTTCCA | -0.158 |
| ACTGCAGG | -0.157 |
| GAGCCCTC | -0.132 |
| GTGCTATA | 0.0366 |
| CTTCAAGC | -0.137 |

| Sequence | PBM E-score |
| --- | --- |
| ACGTCCAG | -0.147 |
| AGAAGACT | -0.0827 |
| ATAATTTA | 0.235 |
| TACGTTAA | -0.191 |
| AGAATCTC | -0.111 |
| CGTACCCA | 0.16 |
| GCTCATTA | -0.0493 |
| ATTACGGC | -0.0276 |
| GTTGGAAA | -0.0799 |
| CATTTGCG | -0.0267 |
| AGTGCGAA | -0.189 |
| CTAGCCAA | 0.0453 |
| AATACTCT | 0.0104 |
| ATCCCTCA | -0.16 |
| GATTGCTA | -0.0805 |
| AGCCCTTG | -0.088 |
| TAGATCGA | -0.048 |
| GGGAGAAC | -0.189 |
| ATTGTTTG | -0.0624 |
| TCAGTTCA | -0.0239 |
| GTGTGAAC | 0.18 |
| AACCCTGT | -0.0657 |
| ACTTGCAA | 0.00414 |
| AAGGTAAC | 0.0225 |
| TGGGCACA | 0.0493 |

| Sequence | PBM E-score |
| --- | --- |
| ATGGGCAA | 0.129 |
| TCGACAGA | -0.0968 |
| CGCGACCC | 0.153 |
| TGCTAAAA | -0.255 |
| CAATTCTG | -0.077 |
| GCTGAATA | 0.00091 |
| AATGGTCA | 0.0534 |
| AAAAAAGC | -0.19 |
| CACTATCC | -0.0168 |
| CCGATGGC | -0.0471 |
| GATCGGCA | -0.059 |
| CCGTCACC | -0.114 |
| ACATCAGG | 0.0879 |
| AGAGGGCT | -0.249 |
| AACGTTCT | -0.0871 |
| ATGCCATA | -0.0959 |
| ACGGAAGT | -0.0793 |
| CGGATGTC | -0.00234 |
| AGGATACT | -0.156 |
| ACGCATTA | -0.0807 |
| AGAATAGA | -0.151 |
| ACCAGCAT | 0.0788 |
| ATTTAGGG | -0.202 |
| AGCAGTTA | -0.103 |
| AATACCTC | 0.0406 |

| Sequence | PBM E-score |
| --- | --- |
| CTTCTCTA | -0.263 |
| AAGCCGCC | -0.0537 |
| ACTAAGGG | 0.173 |
| AGAGTACC | 0.00489 |
| ATGATCAC | 0.265 |
| AACATATT | 0.0536 |
| GGTCATTA | -0.0362 |
| ACGCCGCT | 0.0465 |
| CACCGTGA | 0.162 |
| ACCCGCAG | 0.0734 |
| AAACCTAC | -0.0161 |
| CATAGTCC | 0.115 |
| AGAACCAT | 0.107 |
| GATCTGCA | -0.142 |
| TAATTTAA | -0.0298 |
| ACGCAAGC | 0.0516 |
| TCTTCTAA | -0.118 |
| ATAACGCG | 0.0317 |
| AACGCAAA | 0.0203 |
| GCATTAAA | -0.162 |
| CGGCGTAC | 0.0172 |
| GATAGCGC | 0.00074 |
| AGATGGCC | -0.22 |
| ACTACTCG | 0.24 |
| CCGAAGGC | -0.206 |

| Sequence | PBM E-score |
| --- | --- |
| ACAAAAAT | 0.0768 |
| AACACCAT | 0.16 |
| AGAAGTGA | -0.0563 |
| ATCTTAGC | -0.137 |
| CCACTGCC | 0.0242 |
| CTCAAGAA | -0.175 |
| GGATGAAA | 0.0509 |
| CATGGAAC | -0.056 |
| CTTCTAGC | -0.172 |
| ACGCTCAT | 0.0513 |
| CGCTACGC | -0.148 |
| AAAGGGAC | -0.0521 |
| ATTTCGGG | -0.27 |
| GGTCTGCA | 0.066 |
| ATTCAGAC | 0.106 |
| CCTAGTGA | 0.0766 |
| CTAAAGGC | -0.308 |
| CGTTTTTA | -0.067 |
| GGGCATAC | -0.267 |
| CTCTGTCA | -0.17 |
| ACTCGACA | 0.127 |
| CTTTATAA | -0.307 |
